Among all 46,000 compounds or so, about 60 (0.1%) were called active. Inconclusive results (about 3%) are left out. Calls come from the whole dose curve; as a rule, active = well fitted inhibition curve with a large enough effect; inconclusive = small, poorly fitted or top-dose-only effect; inactive = no such curve, though single readings can be large or run the other way. Some of the results follow.

This assay can be described thus: Primary qHTS assay for Inhibitors of ovarian cancer metastasis using an organotypic tumor microenvironment (TME) model.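 For activity change, negative = inhibition: plate controls were DMSO wells for no effect and tomatine positive control wells for full effect.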 Note: nearly all actives have a fitted effect of over 65% in size. Particulars: SKOV3ip1-GFP adhesion/invasion on 3D omental model, fluorescence; series mostly up to 45.8 µM; activity change, negative = inhibition: at the top concentration. The gist of the method:
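Adhesion/invasion was scored as fixed GFP-labeled SKOV3ip1 cell counts (488/509 nm), normalized to DMSO and tomatine controls. Cancer cells in serum-free medium, with four compound doses (0.36-46 umol/L), sat 2 hr at RT then 16 hr at 37 C on a 48 hr fibroblast/mesothelial/ECM culture.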
Consider `Cc1cccc(OCc2cc(=O)n3c4c(sc3n2)CCCC4)c1C`, for which the “activity change, negative = inhibition” value is inactive: 0.923%.
Still for that read-out and setting: then `Cc1ccc(-c2cn3nc(N4CCCC(C(=O)NCc5ccc(F)cc5)C4)sc3n2)cc1` (configuration not stated), with inactive: -5.08%; and `CC(C)(C)c1ccc(C(=O)N2CCCC(c3nc4c(nnn4Cc4cccc(F)c4)c(=O)[nH]3)C2)cc1` (configuration not stated), with inactive: -1.1%.
Still for that read-out and setting: then `CCCCOc1ccccc1C(=O)N(Cc1sccc1C)C1CCS(=O)(=O)C1` (configuration not stated), with inactive: 2.1%.
Turning to `CCOc1ccc(NC(=O)CSc2c3c(nc4ccccc24)CCCC3)cc1`, the “activity change, negative = inhibition” value was inactive: 0.621%.
Take `CCN1CCSc2ccc(C(=O)NCc3cccc(Br)c3)cc21`: the “activity change, negative = inhibition” value was inactive: -6.3%.
For the compound `COC(=O)c1ccc(NC(=O)CCn2cnnn2)c(C)c1`, the compound was called inactive.
For `Cc1ccc2nc(CN3CCN(S(=O)(=O)c4ccc(C(C)C)cc4)CC3)oc2c1`, the “activity change, negative = inhibition” value is inactive: 1.57%.
Consider `CN(C)CCCn1c(-c2ccc(Cl)cc2)csc1=Nc1ccccc1`, for which the “activity change, negative = inhibition” value was inactive: 14%.
The same measure, in the same setting: then `Cc1cc(C)cc(NC(=O)Cn2c(=O)n(-c3ccc(C)c(C)c3)c(=O)c3oc4ccccc4c32)c1`, with inactive: -22.2%; and `COc1ccc(N2CCN(Cc3nc4c(c(=O)n(C)c(=O)n4C)n3C(C)C)CC2)cc1`, with inactive: 6.61%.
On the same count and under the same terms, then `Cc1nn(-c2ccccc2)c(OC(=O)c2ccc(Cl)cc2)c1S(=O)(=O)c1ccccc1`, with inactive: 13.5%.
As to `COc1cccc(CNC(=O)Cn2ncn3c(cc4ccccc43)c2=O)c1`, the call was inactive.
On to `Cc1ccc(-c2nc3cccc(C)n3c2Nc2ccc3c(c2)OCO3)o1`, for which the “activity change, negative = inhibition” value is inactive: -5.23%.
Take `CCOc1ccccc1C(=O)N1CCc2cc(OC)c(OC)cc2C1COc1ccc(OC)cc1` (configuration not stated): the outcome was inactive.
On the same count and under the same terms, then `CCCNC(=O)c1ccc(Cn2c(SCC(N)=O)nc3ccccc3c2=O)cc1`, with “inactive”.
For the compound `COc1ccc(OC)c(NC(=O)c2cc3cccc(OC)c3oc2=O)c1`, the “activity change, negative = inhibition” value is inactive: -5.33%.
Same read-out and setting: under `COCCCn1c(SCC(=O)Nc2ccc(OC)cc2)nc2c(sc3ccccc32)c1=O` stands inactive: -1.58%.
As to `O=C(CSc1nc(=O)n(CCN2CCOCC2)c2c1CCC2)Nc1ccc(F)cc1F`, the result was inactive.
Consider `CC(C)CC(=O)Nc1ccc2nc(SCC(=O)N3CCOCC3)sc2c1`, for which the “activity change, negative = inhibition” value is inactive: -9.5%.
As to `O=C(c1cc(-c2ccc(Br)cc2)n[nH]1)N1CCN(S(=O)(=O)c2ccc(Cl)s2)CC1`, the “activity change, negative = inhibition” value is inactive: 7.3%.
On the same count and under the same terms, then `COc1ccc(CNS(=O)(=O)c2cc3c(cc2Cl)NC(=O)CO3)cc1`, with inactive: 5.37%.
Consider `CCC(=O)Oc1c(Sc2ccc(C)cc2)c(C)nn1-c1ccccc1`, for which the compound was classed as inactive.
As to `CCOC(=O)c1cc(-c2ccc(F)cc2)n(CCC(=O)Nc2cc(OC)cc(OC)c2)c1C`, the “activity change, negative = inhibition” value is inactive: -15.9%.
Regarding `O=C(Nc1ccccc1C(F)(F)F)C1CCN(S(=O)(=O)c2ccccc2)CC1`, the “activity change, negative = inhibition” value was inactive: -18.6%.
Same read-out and setting: then `O=C(CSc1nc2ncccc2o1)Nc1ccc(Cl)cc1F`, with inactive: 2.66%; and `Cn1c(=O)c2c(nc(N3CCOCC3)n2Cc2ccccc2F)n(C)c1=O`, with inactive: -0.395%.
Turning to `CCCc1nn2c(=O)cc(COC(=O)c3cccc(NC(=O)c4ccc(OCC)cc4)c3)nc2s1`, the outcome was inactive.
Regarding `O=C(Cn1cc(SCc2ccc(Cl)cc2)c2ccccc21)N1CCOCC1`, the “activity change, negative = inhibition” value was inactive: 6.44%.
As to `CC(C)Oc1ccc(C(=O)Nc2nnc3n2CCS3)cc1`, the outcome was inactive.
Turning to `COC(=O)CSc1nc2sc3c(c2c(=O)n1-c1ccccc1)C(C)CCC3` (configuration not stated), the “activity change, negative = inhibition” value is inactive: 6.46%.
On to `COc1cc(C2c3c(-c4cc(C)ccc4O)n[nH]c3C(=O)N2Cc2ccco2)cc(OC)c1OC` (configuration not stated), for which the “activity change, negative = inhibition” value was inactive: 3.92%.
With `COc1ccc(NC(=O)c2cc(S(=O)(=O)N3CCCC(C)C3)cn2C)c(OC)c1` (configuration not stated), the outcome was inactive.
Consider `COc1ccc(NC(=O)CSc2nc3ccccc3n2CC(=O)N(C)C2CCCCC2)cc1`, for which the “activity change, negative = inhibition” value is inactive: -23%.
Same read-out and setting: under `COc1ccc(-c2cc(OC(=O)c3cccc(Cl)c3)c3c(C)oc(C)c3c(=O)c2)cc1OC` stands inactive: 18.9%.
Take `COc1ccc(CN(Cc2ccco2)C(=O)COc2ccccc2Cl)cc1`: the compound was classed as inactive.
With `O=S(=O)(c1cccc(Cl)c1)n1c(/C=C/c2ccccc2Cl)nc2ccccc21`, the “activity change, negative = inhibition” value was inactive: -13.9%.
`Cc1c(Cl)cccc1NC(=O)CSc1nc(=O)[nH]c2c1CCC2`: the compound was called inactive.
Same read-out and setting: under `Cc1c2cnn(-c3ccccc3)c(=O)c2c(C)n1CCCC(=O)Nc1cccc(F)c1` stands “inactive”.
Turning to `O=c1n(Cc2ccccc2)nc2n1-c1cc(Cl)ccc1OC2`, the “activity change, negative = inhibition” value is inactive: 30%.
Regarding `COC(=O)c1ccccc1NC(=O)c1ccc2c(c1)CCN2S(=O)(=O)c1ccc(Cl)cc1`, the “activity change, negative = inhibition” value is inactive: 0.449%.
On the same count and under the same terms, under `Cc1cc(C)c(S(=O)(=O)NCC2CCC(C(=O)NCCc3ccccc3)CC2)c(C)c1` (configuration not stated) stands inactive: -5.43%; under `Cc1ccc(-c2c3c(=O)n(C)c(=O)n(C)c3c3c(-c4cccc(C)c4)nc4ccccc4n23)cc1`, inactive: -4.47%; under `Cc1ccc(C)c(Cn2c3ccccc3c3cnn(CC(=O)NC4CCCCCC4)c(=O)c32)c1`, inactive: 6.79%.
On the same count and under the same terms, under `COc1ccc(-n2nc(C(=O)Nc3cc(C)c(Cl)cc3OC)c3c4ccccc4n(C)c3c2=O)cc1` stands inactive: -0.319%; under `Cc1ccccc1NC(=O)CSc1nc(-c2cccs2)nc2cc(=O)[nH]n12`, inactive: 5.49%.
Consider `COc1cccc(-n2c(SCC(=O)Nc3ccc4c(c3)OCO4)nc3c([nH]c4ccccc43)c2=O)c1`, for which the call was inactive.

The values above are taken from PubChem BioAssay AID1963576 (National Center for Advancing Translational Sciences (NCATS), 2024).
